# Source: PMC4336329 (PLoS ONE, 2015)
# About 14,000 (4.5%) of roughly 310,000 compounds showed an effect of 50% or more. The effect is printed as a negative number. The list shows a part of the results.
# Biological target: human ether-à-go-go-related gene (hERG) potassium channel (human, UniProt Q12809)
# Experiment: primary screen, population patch clamp on CHO cells stably expressing hERG
# 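Note: peak tail current of the secondary pulse compared with the same well before compound.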
# human ether-à-go-go-related gene (hERG) potassium channel, sequence (Q12809 whole entry, looked up): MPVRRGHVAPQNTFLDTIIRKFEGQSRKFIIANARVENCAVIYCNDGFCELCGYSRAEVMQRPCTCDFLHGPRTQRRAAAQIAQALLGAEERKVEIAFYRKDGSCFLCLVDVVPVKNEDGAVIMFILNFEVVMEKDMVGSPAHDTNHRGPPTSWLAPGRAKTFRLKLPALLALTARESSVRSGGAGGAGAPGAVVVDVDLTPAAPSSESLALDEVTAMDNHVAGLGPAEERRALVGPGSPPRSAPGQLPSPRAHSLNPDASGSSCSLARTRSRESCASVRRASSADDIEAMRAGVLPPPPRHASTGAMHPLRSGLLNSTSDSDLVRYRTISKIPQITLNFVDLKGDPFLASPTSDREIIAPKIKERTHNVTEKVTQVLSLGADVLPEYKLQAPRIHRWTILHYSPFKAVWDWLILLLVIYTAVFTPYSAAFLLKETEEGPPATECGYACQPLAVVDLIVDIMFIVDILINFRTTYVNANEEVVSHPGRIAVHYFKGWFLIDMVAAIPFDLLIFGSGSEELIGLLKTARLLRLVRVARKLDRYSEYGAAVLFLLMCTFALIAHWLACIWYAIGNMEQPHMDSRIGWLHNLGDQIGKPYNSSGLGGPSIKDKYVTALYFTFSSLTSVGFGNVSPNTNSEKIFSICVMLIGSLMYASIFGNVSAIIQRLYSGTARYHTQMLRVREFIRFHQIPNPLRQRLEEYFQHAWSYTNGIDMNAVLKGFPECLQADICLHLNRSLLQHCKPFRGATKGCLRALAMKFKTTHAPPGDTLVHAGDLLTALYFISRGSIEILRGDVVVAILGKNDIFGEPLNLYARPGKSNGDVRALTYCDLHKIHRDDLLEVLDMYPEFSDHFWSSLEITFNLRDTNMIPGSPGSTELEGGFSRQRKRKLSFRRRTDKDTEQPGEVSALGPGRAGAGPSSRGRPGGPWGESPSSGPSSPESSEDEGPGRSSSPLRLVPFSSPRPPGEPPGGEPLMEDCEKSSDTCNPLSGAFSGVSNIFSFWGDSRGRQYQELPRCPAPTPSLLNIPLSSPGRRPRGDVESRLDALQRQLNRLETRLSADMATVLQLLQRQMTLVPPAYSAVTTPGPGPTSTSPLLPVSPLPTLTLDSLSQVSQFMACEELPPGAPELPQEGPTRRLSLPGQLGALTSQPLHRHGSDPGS
row,Compound,"hERG current change (%, negative = inhibition) at 10uM [%]"
1,O=C1CC(N2CCN(c3ccccc3)CC2)C(=O)N1c1ccc(Cl)cc1 (stereo not shown),10.9
2,COCCn1c(SCC(=O)Nc2ccc(C(N)=O)cc2)nc2c([nH]c3ccccc32)c1=O,15.2
3,CC1=NN(C(=O)CCCc2ccccc2)C(O)(C(F)(F)F)C1 (stereo not shown),2.65
4,Cl.N=c1sccn1CC(=O)Nc1cc(Cl)ccc1[N+](=O)[O-],2.64
5,O=C(O)c1ccc(NC(=S)NC(=O)c2ccc(-c3ccc(Br)cc3)o2)cc1,18.3
6,Cc1cc(C)cc(NC(=O)CC23CC4CC(C2)CC(n2nnc(C)n2)(C4)C3)c1,-36.2
7,COc1ccc(OC)c(/C=N/NC(=O)CNC(=O)c2ccc(S(=O)(=O)N3CCOCC3)cc2)c1,-19.3
8,O=S(=O)(Nc1c(O)ccc2ccccc12)c1ccccc1,-25.1
9,COc1ccc(N2C(=O)CCC(C(=O)c3ccccc3)=C2C)cc1,-11.1
10,Cc1c(Cl)c([N+](=O)[O-])nn1CC(=O)N1CCN(C23CC4CC(CC(C4)C2)C3)CC1,19.9
11,Cc1ccc(C)c(-c2nnc(NC(=O)Cc3ccccc3)o2)c1,16.1
12,COCCNc1nnc(SCC(=O)c2ccc3c(c2)OCO3)s1,-9.11
13,Cc1cc(C)cc(NC(=O)COC(=O)c2n[nH]c3ccccc23)c1,23.4
14,NC(=O)C1Cc2ccccc2CN1S(=O)(=O)c1cccs1 (stereo not shown),-3.3
15,CCC(C)(C)NC(=O)CN(CC1CCCO1)C(=O)CNS(=O)(=O)c1ccccc1 (stereo not shown),-9.99
16,O=C(NCc1ccc2c(c1)OCO2)C(=O)NCC(c1ccco1)N1CCN(c2ccccc2)CC1 (stereo not shown),16
17,COc1ccc(NC(=O)CSc2nc3ccccc3nc2N2CCCC2)c(OC)c1,24.1
18,COc1ccc(NC(=O)N2CCC(C(=O)c3ccc4c(c3)OCCO4)CC2)cc1,2.64
19,COc1ccc(N2CCN(C(c3cc4cc(C)ccc4[nH]c3=O)c3nnnn3Cc3ccccc3)CC2)cc1 (stereo not shown),-8.91
20,O=C(Cc1ccc(Cl)cc1Cl)OCC(=O)c1ccc[nH]1,11.9
21,CCCc1ccc2oc(C(=O)N3CCN(CC(=O)NC(C)C)CC3)c(C)c2c1,-26.3
22,Cc1[nH]c(=O)c(C(=O)/C=C/c2ccccc2)c2c1CCCC2,-8.03
23,COc1cc(OC)cc(C(=O)Nc2ccc3c(c2)COC3=O)c1,-4.75
24,O=C(c1ccc(F)cc1)N1CCC(C(=O)N(Cc2ccccc2)c2ccccc2)CC1,-16.6
25,Cc1ccc(C(=O)CS(C)(=O)=O)cc1,12
26,CCCc1cc(=O)[nH]c(SCC(=O)c2cc(C)n(-c3cc(C)on3)c2C)n1,-6.65
27,Cc1cc(N2CCN(C)CC2)nc2ccc(NC(=O)c3cccnc3Cl)cc12,-2.54
28,C=CCSc1nnc2c(n1)OC(C)=Nc1ccc(Br)cc1-2,18.7

row,Compound,"hERG current change (%, negative = inhibition) at 10uM [%]"
1,N/C(=N\OC(=O)c1cccs1)c1cccc(Br)c1,10.2
2,CC(=O)OCCN(C)c1cc(SC(C)C)c2nonc2c1[N+](=O)[O-],-30.4
3,COc1ccccc1OC(C)C(=O)Nc1ccccc1C(=O)NCC1CCCO1 (stereo not shown),7.03
4,O=C(Cc1c(O)c2ccccc2[nH]c1=O)NCc1ccccc1,1.03
5,CC12CCC(=O)N1C(C(=O)Nc1ccc(S(=O)(=O)N3CCCCC3)cc1)CS2 (stereo not shown),-5.09
6,COc1ccc(C(=O)NC(=S)N2C[C@H]3C[C@H](C2)c2cccc(=O)n2C3)cc1,4.04
7,COc1ccc([C@@H]2C[C@H](c3ccccc3)Oc3cc(OC)c(OC)c(OC)c32)cc1,21.4
8,O=C(N/N=C/c1cccc([N+](=O)[O-])c1)C1CC(=O)N(c2ccc(F)cc2)C1 (stereo not shown),-65.8
9,Cc1noc(C)c1COC(=O)CCOc1ccccc1,-8.56
10,Cc1ccc(/C(N)=N/OC(=O)Cc2cccs2)cc1,1.93
11,Cc1cc(OCC(=O)NCCc2cccc(F)c2)c2c(C)cc(=O)oc2c1,-2.4
12,O=C(CC1CCCC1)NNC(=O)c1ccc(Br)cc1,2.16
13,CCOC(=O)C1=C(C)NC2=C(C(=O)c3ccccc32)C1c1ccc([N+](=O)[O-])o1 (stereo not shown),-4.77
14,C=CCSC1=N/C(=C/c2ccsc2)C(=O)N1c1ccccc1,13.2
15,CCN(CC)S(=O)(=O)c1cccc(-c2csc(C)n2)c1,-1.57
16,COc1ccc(C2=NN(C(=O)CSc3nnc(C)c(=O)n3N)C(c3ccco3)C2)cc1 (stereo not shown),-42.8
17,CCCC1CCc2c(sc(N)c2C(N)=O)C1 (stereo not shown),-8.27
18,O=C(CN1C(=O)c2ccccc2C1=O)Nc1cccc(S(=O)(=O)Nc2ccccc2Cl)c1,19.9
19,O=C(O)c1cc(-c2ccc3c(c2)OCO3)nc2ccc(Cl)cc12,21.2
20,O=C(/C=C/c1ccc(Cl)c(Cl)c1)n1cccn1,2.98
21,Cc1ccc(/C=N\NC(=O)c2cncc(Br)c2)o1,5.25
22,CCOC(=O)c1cnn(-c2nc(OC)cc(OC)n2)c1C(F)(F)F,-6.9
23,Cc1cc(NCCCn2ccnc2)n2nc(C)c(-c3ccc(Cl)cc3)c2n1,-71.8
24,CCN(CC)S(=O)(=O)c1cccc(C(=O)OCC(=O)c2ccc3c(c2)OCCO3)c1,12.4
25,O=C(CCCc1nc2ccccc2s1)Nc1ccccc1,5.03
26,Cc1ccc(S(=O)(=O)N2CCOCC2)cc1C(=O)NCc1cn2ccsc2n1,12.1
27,CN1CCN(C(=O)c2ccc(Cn3cc(Cl)cn3)o2)CC1.Cl,18.8
